The source of these data is PMC4336329 (PLoS ONE, 2015).

Hit rate of the full screen: of about 310,000 compounds, about 14,000 (4.5%) showed an effect of 50% or more. Effects have a minus sign here. Some of the results follow.
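Also: peak tail current of the secondary pulse compared with the same well before compound.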

Chain of human ether-à-go-go-related gene (hERG) potassium channel (Q12809 whole entry, looked up): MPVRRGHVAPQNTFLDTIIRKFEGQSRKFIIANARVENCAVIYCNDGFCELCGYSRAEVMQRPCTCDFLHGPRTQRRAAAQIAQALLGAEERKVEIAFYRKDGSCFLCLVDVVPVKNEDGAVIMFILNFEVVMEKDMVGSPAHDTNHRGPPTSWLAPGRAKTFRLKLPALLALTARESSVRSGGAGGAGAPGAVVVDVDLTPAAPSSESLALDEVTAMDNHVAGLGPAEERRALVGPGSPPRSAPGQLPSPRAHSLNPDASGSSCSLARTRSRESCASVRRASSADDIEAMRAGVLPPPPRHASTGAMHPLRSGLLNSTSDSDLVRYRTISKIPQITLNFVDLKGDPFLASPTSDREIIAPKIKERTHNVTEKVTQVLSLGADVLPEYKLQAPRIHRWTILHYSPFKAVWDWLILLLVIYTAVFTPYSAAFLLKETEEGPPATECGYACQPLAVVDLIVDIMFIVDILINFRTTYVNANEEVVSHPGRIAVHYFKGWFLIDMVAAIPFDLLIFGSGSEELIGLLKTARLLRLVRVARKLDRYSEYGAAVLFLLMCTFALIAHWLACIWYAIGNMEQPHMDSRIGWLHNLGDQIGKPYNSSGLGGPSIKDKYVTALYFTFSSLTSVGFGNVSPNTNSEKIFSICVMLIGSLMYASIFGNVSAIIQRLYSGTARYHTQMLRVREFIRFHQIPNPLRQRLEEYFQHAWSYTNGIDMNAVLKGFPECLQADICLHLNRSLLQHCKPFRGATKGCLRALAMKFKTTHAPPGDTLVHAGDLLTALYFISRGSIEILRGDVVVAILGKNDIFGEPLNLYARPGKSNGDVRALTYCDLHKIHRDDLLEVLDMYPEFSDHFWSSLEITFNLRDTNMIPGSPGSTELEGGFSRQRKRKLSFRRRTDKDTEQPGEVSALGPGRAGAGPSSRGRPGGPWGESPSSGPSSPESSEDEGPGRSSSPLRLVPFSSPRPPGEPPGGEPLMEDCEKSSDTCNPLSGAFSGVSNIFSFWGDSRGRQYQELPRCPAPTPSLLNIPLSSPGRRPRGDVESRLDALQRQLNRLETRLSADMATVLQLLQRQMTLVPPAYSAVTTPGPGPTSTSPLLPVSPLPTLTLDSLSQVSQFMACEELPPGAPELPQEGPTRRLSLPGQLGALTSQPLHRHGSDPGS

This experiment has as its target human ether-à-go-go-related gene (hERG) potassium channel (human, UniProt Q12809). Put plainly: primary screen, population patch clamp on CHO cells stably expressing hERG.
Regarding `Cc1cc(C)c(N(CC(=O)NC(C)(C)C)C(=O)CNC(=O)c2cccs2)c(C)c1`, the “hERG current change (%, negative = inhibition) at 10uM” value is reported as 15.7%.
`O=c1c2cccc3c2c(nn1CN1CCOCC1)-c1ccccc1-3`: the “hERG current change (%, negative = inhibition) at 10uM” value is reported as -11.5%.
With `Cl.O=[N+]([O-])c1ccc(COc2cccc(CNc3ccc(F)cc3)c2)cc1`, the “hERG current change (%, negative = inhibition) at 10uM” value is recorded as -15.6%.
In the case of `CN(CC(=O)NCCc1ccc(S(N)(=O)=O)cc1)S(=O)(=O)/C=C/c1ccccc1`, the “hERG current change (%, negative = inhibition) at 10uM” value was found to be 19.2%.
Consider `COc1ccccc1NC(=O)Nn1cnnc1`, for which the “hERG current change (%, negative = inhibition) at 10uM” value is on record as 10.8%.
For `N#Cc1ccc(-c2cccnc2)nc1SCC(N)=O`, the “hERG current change (%, negative = inhibition) at 10uM” value is given as -3.07%.
With `O=C1C=C(c2ccc(-c3ccccc3)c(F)c2)C[C@@H](c2ccc(F)cc2)C1`, the “hERG current change (%, negative = inhibition) at 10uM” value was found to be 9.36%.
With `CCOC(=O)c1cc(C(=O)NN)c(=O)[nH]c1C` the figure was 15.7%; with `O=C(O)c1cccnc1SC1CC(=O)N(Cc2ccccc2)C1=O` (stereo not drawn), -3.87%.
Take `Cc1ccc(NC(=S)N2CCN(c3ncccn3)CC2)c(C)c1`: the “hERG current change (%, negative = inhibition) at 10uM” value is recorded as -3.74%.
Turning to `O=S(=O)(c1ccccc1)N1CCN(c2cccc(Cl)c2)CC1`, the “hERG current change (%, negative = inhibition) at 10uM” value turned out to be 8.67%.
Take `Cc1oc2c(CN3CCOCC3)c(O)ccc2c(=O)c1-c1ccc(Cl)cc1`: the “hERG current change (%, negative = inhibition) at 10uM” value was -19.1%.
Under `Cc1ccccc1C(=O)NCc1nnc(SCC(=O)N2c3ccccc3Sc3ccccc32)n1C` stands -4.41%; under `O=C(Nc1ccc(O)c2c(=O)cc(-c3cccc(Cl)c3)oc12)c1ccc(F)cc1`, 8.91%.
On to `CCOC(=O)c1c(N)sc2c1CCS(=O)(=O)C2`, for which the “hERG current change (%, negative = inhibition) at 10uM” value worked out at 9.07%.
Under `CCC(OC(=O)C(CC(C)C)NC(=O)c1ccccc1)C(=O)Nc1nnc(C)s1` (stereo not drawn) stands 3.85%; under `N#CC1(c2ccc(NC(=O)c3ccccc3F)cc2)CCCC1`, -7.6%.
For `COc1ccc(NC(=O)c2ccc3c(=O)n(CC4CCCO4)c(=S)[nH]c3c2)c(OC)c1` (stereo not drawn), the “hERG current change (%, negative = inhibition) at 10uM” value was determined as 6.84%.
With `CC(C)Oc1ccc(C(=O)NC2CCN(Cc3ccccc3)CC2)cc1` the figure was -60.8%; with `Cc1cccc(NC(=O)c2cc(Cl)ccc2[N+](=O)[O-])c1`, -24.9%; with `CC1CCc2c(sc(NC(=O)C(=O)NCc3ccco3)c2C#N)C1` (stereo not drawn), -66.3%.
Under `c1ccc(CNc2nc(-c3ccccc3)nc3ccccc23)cc1` stands 4.15%; under `O=C(CCN1C(=O)/C(=C\c2cccs2)SC1=S)Nc1ccc(C(=O)O)cc1`, 11.5%.
`CCOC(=O)Cc1csc(NC(=O)CSc2nc(=O)[nH]c3c2CCC3)n1`: the “hERG current change (%, negative = inhibition) at 10uM” value worked out at 12.1%.
